The record followed here is ChEMBL document CHEMBL1201862, “PubChem BioAssay data set” (2004).

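Tested at 5 concentrations; 48 h exposure; 96-well plates; endpoints linearly interpolated, else capped at highest concentration. GI50 marks 50% less growth.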 The source made the active and inactive calls. Cut-off read from the data, not from the text of the source: active = GI50 up to about 1.1 µM and inactive = higher.

The test system of the assay is NCI-H322M. In words: growth of human tumour cells (NCI), 48 h.
For `COc1ccc(OC)c2c1C(=O)C(Cl)=C(Cl)C2=O`, the GI50 was inactive: 24.9 µM.

With `O=C(O)CCCCn1ccc(=O)[nH]c1=O`, the GI50 is inactive: > 100 µM.

As for `Cc1cccc(C2NC(=O)c3ccccc3N2)c1` (stereo not given), the GI50 is inactive: > 23.6 µM. Take `O=C(CCc1ccc(O)cc1)NCCc1cccc(O)c1`: the GI50 was inactive: > 50 µM.

Take `CC(C)OC(=O)c1cccnc1/C=N/O`: the GI50 is inactive: > 100 µM. Under `COC(=O)c1nc(N)nc(C(=O)OC)c1C(=O)c1ccccc1` stands inactive: > 100 µM. Consider `NN1C(=O)C(CCO)S/C1=N/N=C1/SC(CCO)C(=O)N1N` (stereo not given), for which the GI50 is inactive: > 100 µM. The figure for `Fc1nc(F)nc(-c2c3ccccc3c3n2CCS3)n1` is inactive: > 100 µM; for `COc1ccccc1/C=C1\NC(=S)N(/C=C2\C(=O)Oc3ccccc3C2=O)C1=O` it is inactive: 63.2 µM.

As to `CN(C)P(=O)(Oc1ccc(CC(NC(=O)OCc2ccccc2)C(=O)OCc2ccccc2)cc1)N(C)C` (stereo not given), the GI50 was inactive: 18 µM.

As for `CCOC(=O)[C@H]1Nc2ccc(Cl)cc2[C@H]2OCC[C@@H]12`, the GI50 was inactive: > 100 µM. Turning to `N#C/N=C1\NCCC(=O)N1CCc1c[nH]c2ccccc12`, the GI50 was inactive: > 100 µM. The figure for `COCCN1C2=CCCCC2=Nc2c(N)nc(N)nc21` is inactive: > 100 µM. Turning to `Cc1cccc(NC(=O)c2cc3cc(/N=N/c4ccccc4Cl)ccc3oc2=O)c1`, the GI50 is inactive: 40.6 µM. Under `CCCCCCCCCCCCCCCCCCNc1nc(=O)n(C2CC(OP(=O)(O)OCC3OC(n4cc(F)c(=O)[nH]c4=O)CC3O)C(CO)O2)cc1F` (stereo not given) stands inactive: 53.8 µM; under `NC(=S)NS(=O)(=O)c1ccc(Cl)cc1Cl`, inactive: > 100 µM; under `COc1cc(Cc2ccc3c(c2C#N)N(C)c2ccccc2S3)cc(OC)c1OC`, inactive: > 100 µM. The figure for `O=C1CC(Br)c2c(Br)sc(Br)c21` (stereo not given) is inactive: > 100 µM; for `NS(=O)(=O)c1ccc(NC(=S)NC=C2C(=O)c3ccccc3C2=O)cc1` it is inactive: > 100 µM. Under `O=C1CC(c2ccccc2)NCCCCN2CC(CN1)C(C(O)c1ccccc1)C2=O` (stereo not given) stands inactive: > 100 µM. For the molecule `C=CC12CN(C)C3C4COC(CC41)C1(C(=O)Nc4ccccc41)C32` (stereo not given), the GI50 was inactive: 171 µM. Under `CS(=O)(=O)OCCn1c(=O)n(CCOS(C)(=O)=O)c(=O)n(CCOS(C)(=O)=O)c1=O` stands inactive: > 100 µM; under `C/C(CC(=O)NCCc1ccccc1)=N\NS(=O)(=O)c1ccc(C)cc1`, inactive: > 100 µM. Under `CNS(=O)(=O)NNS(=O)(=O)c1ccc(OC)cc1` stands inactive: > 100 µM; under `COC(=O)C1CC(c2ccc(Cl)cc2)=NO1` (stereo not given), inactive: > 100 µM. The figure for `C/C(=N\Nc1ccc([N+](=O)[O-])cc1[N+](=O)[O-])c1ccc2ccccc2n1` is inactive: > 100 µM; for `CCC(C)C(NC(=O)C(CCCC[N+](=N)N)NC(=O)C(CCCC[N+](=N)N)NC(=O)c1ccc(OC)cc1)C(=O)NC(CCCC[N+](=N)N)C(=O)N1CCCC1C(=O)NC(CCCCN)C(=O)NC(CC(C)C)C(N)=O` (stereo not given) it is inactive: > 100 µM; for `C/C=C/C=C\C(=O)C1c2cccc(O)c2C(=O)c2c(O)cc(C)cc21` (stereo not given) it is inactive: 1.17 µM.

In the case of `COC(=O)C(N)CCCC(N)C(=O)NC(C)C(=O)NC(CCC(=O)NCCNCCNc1c2ccccc2nc2cccc([N+](=O)[O-])c12)C(N)=O` (stereo not given), the GI50 was inactive: 18 µM. For the molecule `COc1cc(/N=C(\N)N=C(N)N)c2ncccc2c1`, the GI50 is inactive: 88.3 µM.

Regarding `CCOC(=O)c1cc(-c2ccc(OC)c(OC)c2)cn1C`, the GI50 was inactive: > 10 µM.

For the molecule `O=S1(=O)C(c2ccccc2)C(N2CCCCC2)C1C1CC2c3ccccc3C1c1ccccc12` (stereo not given), the GI50 was inactive: > 100 µM. Under `Nc1nc(CCC(=O)Nc2cccc(C(F)(F)F)c2)cc(-c2ccc3ccccc3c2)n1` stands inactive: > 100 µM. With `Cc1ccc(Nc2nc(C)c(C(=O)CC(=O)C(=O)Nc3c(C)cccc3C(C)(C)C)s2)cc1`, the GI50 was inactive: > 100 µM. Under `CCOC(=O)Oc1cc2ccsc2c2c1c1ccccc1n2C(=O)OCC` stands inactive: 43.3 µM.

Consider `CS(=O)(=O)C1(Br)S(=O)(=O)OCCOS1(=O)=O`, for which the GI50 is inactive: > 100 µM. Under `CCC(=O)Nc1ccc(NCC(=O)Nc2ccc(OC)cc2)cc1` stands inactive: 21.9 µM. For `O=C1C=CC(O)C2C1CC13SSC4(CC5C(=O)C=CC(O)C5N4C1=O)C(=O)N23` (stereo not given), the GI50 is inactive: 1.13 µM.

On to `C/C(=N\NS(=O)(=O)c1ccc(C)cc1)C(CN(C)C)C(c1ccccc1)c1c(O)c2ccccc2oc1=O` (stereo not given), for which the GI50 was inactive: > 100 µM. Under `Cc1cn(C2CC(O)C(COC(N)=O)O2)c(=O)[nH]c1=O` (stereo not given) stands inactive: > 100 µM; under `N#CC1(Cc2ccccc2)CCCCN1C(=O)c1ccccc1` (stereo not given), inactive: > 100 µM. The figure for `CC(=O)Nc1ccccc1-c1nc2ccccc2nc1C` is inactive: > 100 µM; for `CC1=NN(c2ccccc2)C(=O)C12[C@H](c1ccccc1)C2(C#N)C#N` (stereo not given in full) it is inactive: 15.5 µM. Turning to `COCOc1ccc(Cn2c(=O)n(C)c(=O)c3c2ncn3C)cc1[N+](=O)[O-]`, the GI50 was inactive: > 100 µM. With `COc1cc2nc(-c3cccs3)nc(Nc3cccc([N+](=O)[O-])c3)c2cc1OC`, the GI50 is inactive: 17 µM. For `COc1cc(C=O)cc(/C=N/c2ccc(Br)cc2)c1O`, the GI50 is inactive: 19.2 µM.

Consider `Cc1noc(/N=C2\C=C(Nc3onc(C)c3C)C(=O)c3ccccc32)c1C`, for which the GI50 was inactive: > 100 µM. The figure for `CC1=CC(N2C(=O)C(C)=CC2O)NC1=O` (stereo not given) is inactive: > 10 µM. The figure for `CC(=O)OC1CCn2nnc(CO)c21` (stereo not given) is inactive: > 100 µM; for `O=c1oc2ccc(-n3c(=O)c4ccccc4c4ccccc4c3=O)cc2c2ccccc12` it is inactive: > 100 µM. The figure for `O=C(O)C12CC3(C(=O)O)CC(C(=O)O)(CC(C(=O)O)(C1)C3=O)C2=O` is inactive: > 100 µM. Take `OC(CC1SCCCS1)c1ccccc1` (stereo not given): the GI50 was inactive: > 100 µM. Under `CCC1(c2ccc(N3C(=O)c4cc(OC)c(OC)cc4C3=O)cc2)CCC(=O)NC1=O` (stereo not given) stands inactive: > 10 µM; under `O=[PH](O)c1cc2ccccc2c2ccccc12`, inactive: > 100 µM. Turning to `Cc1cc(Nc2ccc(S(=O)(=O)O)c3cc(S(=O)(=O)O)cc(S(=O)(=O)O)c23)c2ccccc2n1`, the GI50 is inactive: > 100 µM. With `CC(C)(C)OC(=O)N1C2CCCC23O[C@@H]1c1cc2c(cc1C3=O)OCO2` (stereo not given in full), the GI50 is inactive: 56.5 µM. As to `CC(C)(C)C(=O)N1C(C(=O)O)Cc2ccccc2[C@@H]1Cc1ccccc1` (stereo not given in full), the GI50 is inactive: > 100 µM. Regarding `COc1ccc(-c2cc(=O)c3c(O)cccc3o2)c(OC)c1OC`, the GI50 is inactive: > 100 µM. Under `CCCCCCNC(=O)c1cc(C#Cc2cc(OC)ccc2OC)ccc1OC` stands inactive: > 100 µM; under `O=S(=O)(Nc1nccs1)c1ccc(Nc2nc(-c3cccs3)nc3ccc(I)cc23)cc1`, inactive: 14.6 µM.
